31 variants from the GPR68 mutational scans of Howard et al. (2025) can be followed below.

Sequences and labels used below:
B1: GPR68, Q15743 (parent)
chain: MGNITADNSSMSCTIDHTIHQTLAPVVYVTVLVVGFPANCLSLYFGYLQIKARNELGVYLCNLTVADLFYICSLPFWLQYVLQHDNWSHGDLSCQVCGILLYENIYISVGFLCCISVDRYLAVAHPFRFHQFRTLKAAVGVSVVIWAKELLTSIYFLMHEEVIEDENQHRVCFEHYPIQAWQRAINYYRFLVGFLFPICLLLASYQGILRAVRRSHGTQKSRKDQIQRLVLSTVVIFLACFLPYHVLLLVRSVWEASCDFAKGVFNAYHFSLLLTSFNCVADPVLYCFVSETTHRDLARLRGACLAFLTCSRTGRAREAYPLGAPEASGKSGAQGEEPELLTKLHPAFQTPNSPGSGGFPTGRLA

Scores with a large standard error are left out. The source holds two more conditions with little spread; they are left out. Read del as a deletion of the residues named and ins as an insertion between two positions. For part of these data: The concentration of ogerin is not given here.

Series [1] covers variants of B1. The experiment in a line: cAMP reporter score (Enrich2 score, wild type = 0); higher = more signal; HEK293T, FACS bins.
In series [2] the parent is B1. The experiment in a line: surface expression score (Enrich2 score, wild type = 0); higher = more signal; HEK293T, FACS bins.

For the variant Q79L, the cAMP reporter score was -0.929 in series [1] (pH 5.5); -0.402 in series [1] (pH 6); -1.17 in series [1] (pH 6, modulator: ogerin); -0.802 in series [1] (pH 6.5, modulator: ogerin). Besides, in series [2], the surface expression score is -0.336.

Regarding Q79G, the cAMP reporter score in series [1] (pH 5.5) was -1.11; in series [1] (pH 6), -0.197; in series [1] (pH 6, modulator: ogerin), -0.989; in series [1] (pH 6.5, modulator: ogerin), -1.29. Also, the surface expression score in series [2] was 1.01.

Q79I: the cAMP reporter score is -1.42 in series [1] (pH 5.5); -0.711 in series [1] (pH 6); -1.21 in series [1] (pH 6, modulator: ogerin); -1.19 in series [1] (pH 6.5, modulator: ogerin). For the same variant, the surface expression score in series [2] is -0.232.

Take Q79T: the cAMP reporter score was -0.206 in series [1] (pH 5.5) and -0.979 in series [1] (pH 6.5, modulator: ogerin). The surface expression score in series [2] is 0.769.

As for Q79S, the cAMP reporter score in series [1] (pH 5.5) was -0.325; in series [1] (pH 6), -1.09; in series [1] (pH 6, modulator: ogerin), -0.687; in series [1] (pH 6.5, modulator: ogerin), -1.03. Besides, the surface expression score in series [2] is 1.31.

Q79N: the cAMP reporter score in series [1] (pH 5.5) is 0.343; in series [1] (pH 6), -0.675; in series [1] (pH 6, modulator: ogerin) it was -0.307; in series [1] (pH 6.5, modulator: ogerin), -0.649. Also, in series [2], the surface expression score is 1.44.

On to Q79K, for which the cAMP reporter score in series [1] (pH 5.5) was -0.93; in series [1] (pH 6), -0.458; in series [1] (pH 6, modulator: ogerin), -0.962; in series [1] (pH 6.5, modulator: ogerin), -0.954. Also, in series [2], the surface expression score turned out to be 0.87.

Regarding D85_N86insGSG, the cAMP reporter score is -1.36 in series [1] (pH 5.5); -0.957 in series [1] (pH 6); -1.32 in series [1] (pH 6, modulator: ogerin); -0.908 in series [1] (pH 6.5, modulator: ogerin). In addition, in series [2], the surface expression score was found to be 0.916.

For the variant D85_W87del, the cAMP reporter score in series [1] (pH 5.5) is -0.671; in series [1] (pH 6), 0.189; in series [1] (pH 6, modulator: ogerin), -1.27; in series [1] (pH 6.5, modulator: ogerin) it was -1.08. The surface expression score in series [2] was -0.983.

H84_D85del: the cAMP reporter score is -1.26 in series [1] (pH 5.5); -1.02 in series [1] (pH 6); -1.93 in series [1] (pH 6, modulator: ogerin); -1.14 in series [1] (pH 6.5, modulator: ogerin). Also, in series [2], the surface expression score was -1.36.

As for Q83del, the cAMP reporter score in series [1] (pH 5.5) is -0.566; in series [1] (pH 6) it was -0.791; in series [1] (pH 6, modulator: ogerin), 0.075. In series [2], the surface expression score worked out at 1.91.

As to S88E, the cAMP reporter score in series [1] (pH 5.5) was 0.514; in series [1] (pH 6), -0.691; in series [1] (pH 6, modulator: ogerin) it was 0.684; in series [1] (pH 6.5, modulator: ogerin) it was -0.388. In series [2], the surface expression score turned out to be 1.04.

Regarding S88D, the cAMP reporter score in series [1] (pH 5.5) was -0.374; in series [1] (pH 6, modulator: ogerin), -1.3; in series [1] (pH 6.5, modulator: ogerin), -0.609. In series [2], the surface expression score came out at 0.78.

Consider S88G, for which the cAMP reporter score in series [1] (pH 5.5) was -0.742; in series [1] (pH 6, modulator: ogerin), -0.506; in series [1] (pH 6.5, modulator: ogerin), 0.344. Besides, in series [2], the surface expression score came out at 0.416.

With S88F, the cAMP reporter score in series [1] (pH 5.5) is -1.59; in series [1] (pH 6) it was -0.284; in series [1] (pH 6, modulator: ogerin), -0.917. The surface expression score in series [2] stood at 0.645.

As to S88C, the cAMP reporter score in series [1] (pH 5.5) was -0.717; in series [1] (pH 6) it was -0.686; in series [1] (pH 6, modulator: ogerin) it was -0.734; in series [1] (pH 6.5, modulator: ogerin), -0.274. Also, in series [2], the surface expression score is -1.08.

For S88A, the cAMP reporter score in series [1] (pH 5.5) is 0.419; in series [1] (pH 6), -0.062; in series [1] (pH 6, modulator: ogerin), 0.138; in series [1] (pH 6.5, modulator: ogerin), 0.139. The surface expression score in series [2] worked out at 1.13.

Consider Q79del, for which the cAMP reporter score in series [1] (pH 5.5) was -1.2; in series [1] (pH 6), -0.326; in series [1] (pH 6, modulator: ogerin), -1.42; in series [1] (pH 6.5, modulator: ogerin), -0.472. Further, the surface expression score in series [2] was 1.36.

On to N86del, for which the cAMP reporter score in series [1] (pH 5.5) was 0.074; in series [1] (pH 6), -0.3; in series [1] (pH 6, modulator: ogerin), 0.2; in series [1] (pH 6.5, modulator: ogerin) it was -0.155. For the same variant, the surface expression score in series [2] is 0.837.

Consider W87_S88del, for which the cAMP reporter score in series [1] (pH 5.5) was -1.32; in series [1] (pH 6), -1.65; in series [1] (pH 6, modulator: ogerin), -1.79; in series [1] (pH 6.5, modulator: ogerin) it was -1.23. The surface expression score in series [2] was -0.483.

For the variant Q83_H84insGS, the cAMP reporter score is -0.877 in series [1] (pH 5.5); -0.615 in series [1] (pH 6); -1.42 in series [1] (pH 6, modulator: ogerin); -1.3 in series [1] (pH 6.5, modulator: ogerin). The surface expression score in series [2] turned out to be 1.43.

For the variant Q79_Y80insGSG, the cAMP reporter score in series [1] (pH 5.5) was -1.64; in series [1] (pH 6), -1.36; in series [1] (pH 6, modulator: ogerin), -2.24; in series [1] (pH 6.5, modulator: ogerin), -1.22. Moreover, the surface expression score in series [2] was -2.21.

H84_D85insGSG: the cAMP reporter score is -1.56 in series [1] (pH 5.5); -1.28 in series [1] (pH 6); -2.19 in series [1] (pH 6, modulator: ogerin); -1.29 in series [1] (pH 6.5, modulator: ogerin). In addition, the surface expression score in series [2] was found to be 0.638.

Regarding W87_S88insGSG, the cAMP reporter score was -1.75 in series [1] (pH 5.5); -1.02 in series [1] (pH 6); -1.18 in series [1] (pH 6, modulator: ogerin); -0.786 in series [1] (pH 6.5, modulator: ogerin). The surface expression score in series [2] was -0.164.

As for Y80_L82del, the cAMP reporter score in series [1] (pH 5.5) was -0.054; in series [1] (pH 6), -1.14; in series [1] (pH 6, modulator: ogerin), -1.62; in series [1] (pH 6.5, modulator: ogerin), -0.946. For the same variant, in series [2], the surface expression score came to 0.724.

For Y80_V81del, the cAMP reporter score in series [1] (pH 5.5) was -0.53; in series [1] (pH 6) it was -1.33; in series [1] (pH 6, modulator: ogerin) it was -1.08; in series [1] (pH 6.5, modulator: ogerin), -0.9. In addition, in series [2], the surface expression score was determined as 0.977.

Take N86_W87insG: the cAMP reporter score was -1.03 in series [1] (pH 5.5); -1.14 in series [1] (pH 6); -1.54 in series [1] (pH 6, modulator: ogerin); -1.15 in series [1] (pH 6.5, modulator: ogerin). In series [2], the surface expression score was 0.64.

Consider L82_Q83del, for which the cAMP reporter score in series [1] (pH 5.5) was -1.29; in series [1] (pH 6), -0.721; in series [1] (pH 6, modulator: ogerin), -0.79; in series [1] (pH 6.5, modulator: ogerin) it was -0.586. For the same variant, in series [2], the surface expression score worked out at 0.24.

Take Q79_Y80insGS: the cAMP reporter score in series [1] (pH 5.5) was -1.36; in series [1] (pH 6), -1.05; in series [1] (pH 6.5, modulator: ogerin) it was 0.329. For the same variant, the surface expression score in series [2] was -0.589.

On to W87del, for which the cAMP reporter score was -0.868 in series [1] (pH 5.5); -0.98 in series [1] (pH 6); -1.12 in series [1] (pH 6, modulator: ogerin); -1.42 in series [1] (pH 6.5, modulator: ogerin). In addition, the surface expression score in series [2] is -0.283.

Consider N86_W87insGS, for which the cAMP reporter score was -0.935 in series [1] (pH 5.5); 0.053 in series [1] (pH 6, modulator: ogerin); -1.6 in series [1] (pH 6.5, modulator: ogerin). For the same variant, the surface expression score in series [2] stood at 1.54.
